Measured values: the supplement of paper PMC7826260
The list shows a part of the results. Cleavage of a single-stranded DNA pool by Rep nickase domains was read by sequencing at 3 µM enzyme and 37 °C for 1 h; the strands have 90 letters, of which the middle is given. The score is log2 (uncut reads / reads without enzyme); strong cutting gives strongly negative numbers. There is no active / inactive call. Because reads are shares of a total, they shift together; uncut strands gain when others are lost, and binding without cutting may add a little.

Columns and labels:
Assay in all cases: uncleaved DNA left, log2 of reads against the no-enzyme library (log2 ratio); higher = less cleavage (more negative = more Rep cleavage of the k-mer); sequences stand for … in CTCGTCCG…ACCGGAGA
[1] = test system: T1, Rep nickase domain of Muscovy duck circovirus
T1 sequence (residues 1-111, tag not shown): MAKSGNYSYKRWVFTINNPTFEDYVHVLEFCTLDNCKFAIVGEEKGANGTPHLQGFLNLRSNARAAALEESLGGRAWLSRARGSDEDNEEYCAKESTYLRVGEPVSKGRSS
Experimental: (§1)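 A pool of 90-nt single-stranded DNAs with seven random bases just before the constant AC of the nick site (name = the seven bases) was cut by 3 µM recombinant His6-SUMO-tagged Rep nickase domain (300 nM DNA, 50 mM HEPES pH 8.0, 50 mM NaCl, 1 mM MnCl2, 1 h, 37 °C, three replicates). Uncut DNA was amplified and sequenced.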

[2] = test system: T2, Rep nickase domain of banana bunchy top virus
T2 sequence (residues 1-94, tag not shown): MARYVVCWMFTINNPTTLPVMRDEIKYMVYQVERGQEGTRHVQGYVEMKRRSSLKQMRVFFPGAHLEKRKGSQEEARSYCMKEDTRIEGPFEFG
Experimental: as §1

[3] = test system: T3, Rep nickase domain of cabbage leaf curl virus
T3 sequence (residues 1-116, tag not shown): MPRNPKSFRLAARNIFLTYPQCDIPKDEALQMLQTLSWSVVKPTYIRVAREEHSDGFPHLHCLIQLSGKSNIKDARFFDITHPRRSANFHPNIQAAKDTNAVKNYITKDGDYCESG
Experimental: as §1

[4] = test system: T4, Rep nickase domain of chickpea chlorotic dwarf virus
T4 sequence (residues 1-124, tag not shown): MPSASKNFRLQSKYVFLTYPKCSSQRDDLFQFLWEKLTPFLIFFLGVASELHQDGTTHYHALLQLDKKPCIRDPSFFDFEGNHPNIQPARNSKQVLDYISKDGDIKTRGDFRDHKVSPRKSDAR
Experimental: as §1

[5] = test system: T5, Rep nickase domain of faba bean necrotic yellows virus
T5 sequence (residues 1-98, tag not shown): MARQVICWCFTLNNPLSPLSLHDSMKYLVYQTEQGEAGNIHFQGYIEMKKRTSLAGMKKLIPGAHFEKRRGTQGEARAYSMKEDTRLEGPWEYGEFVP
Experimental: as §1

[6] = test system: T6, Rep nickase domain of maize striate mosaic virus
T6 sequence (residues 1-117, tag not shown): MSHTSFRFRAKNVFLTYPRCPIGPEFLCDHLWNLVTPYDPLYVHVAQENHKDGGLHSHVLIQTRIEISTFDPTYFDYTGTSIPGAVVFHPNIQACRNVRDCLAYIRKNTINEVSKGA
Experimental: as §1

[7] = test system: T7, Rep nickase domain of porcine circovirus 2
T7 sequence (residues 2-116, tag not shown): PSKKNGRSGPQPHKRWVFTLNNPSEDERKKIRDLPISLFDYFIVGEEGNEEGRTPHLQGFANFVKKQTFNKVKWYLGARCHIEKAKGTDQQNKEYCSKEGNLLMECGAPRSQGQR
Experimental: as §1

[8] = test system: T8, Rep nickase domain of tomato golden mosaic virus
T8 sequence (residues 1-124, tag not shown): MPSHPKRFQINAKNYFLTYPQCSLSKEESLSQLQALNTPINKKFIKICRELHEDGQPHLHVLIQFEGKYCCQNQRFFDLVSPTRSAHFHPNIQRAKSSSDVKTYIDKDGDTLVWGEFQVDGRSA
Experimental: as §1

[9] = test system: T9, Rep nickase domain of tomato yellow leaf curl virus
T9 sequence (residues 1-136, tag not shown): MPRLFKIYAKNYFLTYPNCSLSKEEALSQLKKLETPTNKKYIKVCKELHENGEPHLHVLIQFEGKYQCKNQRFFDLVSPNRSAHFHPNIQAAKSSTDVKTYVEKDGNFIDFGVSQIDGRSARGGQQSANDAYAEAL
Experimental: as §1

[10] = test system: T10, Rep nickase domain of wheat dwarf virus
T10 sequence (residues 1-137, tag not shown): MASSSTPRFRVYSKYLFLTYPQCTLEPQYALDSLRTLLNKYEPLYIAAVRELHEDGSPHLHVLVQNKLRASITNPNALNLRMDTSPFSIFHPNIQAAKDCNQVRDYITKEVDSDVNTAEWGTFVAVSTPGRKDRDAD
Experimental: as §1

For AGATACA, the “uncleaved DNA left (log2)” value [1] was -0.285, the “uncleaved DNA left (log2)” value [2] was 0.0508 and the “uncleaved DNA left (log2)” value [3] was 0.025. The “uncleaved DNA left (log2)” value [4] was -1.16, the “uncleaved DNA left (log2)” value [5] was -0.0612 and the “uncleaved DNA left (log2)” value [6] was 0.0811. For the same sequence, the “uncleaved DNA left (log2)” value [7] was -0.235, the “uncleaved DNA left (log2)” value [8] was -0.0544 and the “uncleaved DNA left (log2)” value [9] was 0.0168. For the same sequence, the “uncleaved DNA left (log2)” value [10] was 0.0146.
ATCTAAG was tested, and the “uncleaved DNA left (log2)” value [1] was -0.0433, the “uncleaved DNA left (log2)” value [2] was 0.00105 and the “uncleaved DNA left (log2)” value [3] was -0.793. The “uncleaved DNA left (log2)” value [4] was -0.277, the “uncleaved DNA left (log2)” value [5] was 0.0106 and the “uncleaved DNA left (log2)” value [6] was -1.33. The “uncleaved DNA left (log2)” value [7] was 0.125, the “uncleaved DNA left (log2)” value [8] was -0.0461 and the “uncleaved DNA left (log2)” value [9] was 0.0179. For the same sequence, the “uncleaved DNA left (log2)” value [10] was -0.024.
TAGCCTA was tested, and the “uncleaved DNA left (log2)” value [1] was -0.158, the “uncleaved DNA left (log2)” value [2] was -0.0783 and the “uncleaved DNA left (log2)” value [3] was -0.168. For the same sequence, the “uncleaved DNA left (log2)” value [4] was -2.39, the “uncleaved DNA left (log2)” value [5] was 0.0287 and the “uncleaved DNA left (log2)” value [6] was -0.251. The “uncleaved DNA left (log2)” value [7] was -1.43, the “uncleaved DNA left (log2)” value [8] was -0.0507 and the “uncleaved DNA left (log2)” value [9] was 0.0391. For the same sequence, the “uncleaved DNA left (log2)” value [10] was 0.0495.
For TCAAGTT, the “uncleaved DNA left (log2)” value [1] was 0.0573, the “uncleaved DNA left (log2)” value [2] was 0.0317 and the “uncleaved DNA left (log2)” value [3] was -0.767. The “uncleaved DNA left (log2)” value [4] was -2.51, the “uncleaved DNA left (log2)” value [5] was 0.0312 and the “uncleaved DNA left (log2)” value [6] was -0.275. The “uncleaved DNA left (log2)” value [7] was 0.0129, the “uncleaved DNA left (log2)” value [8] was -0.0392 and the “uncleaved DNA left (log2)” value [9] was 0.0249. The “uncleaved DNA left (log2)” value [10] was -0.204.
With CGCGATT the “uncleaved DNA left (log2)” value [1] was -0.0499, the “uncleaved DNA left (log2)” value [2] was -0.0809 and the “uncleaved DNA left (log2)” value [3] was -0.244. For the same sequence, the “uncleaved DNA left (log2)” value [4] was -0.289, the “uncleaved DNA left (log2)” value [5] was -0.107 and the “uncleaved DNA left (log2)” value [6] was 0.0654. The “uncleaved DNA left (log2)” value [7] was -0.411, the “uncleaved DNA left (log2)” value [8] was -0.311 and the “uncleaved DNA left (log2)” value [9] was -0.285. For the same sequence, the “uncleaved DNA left (log2)” value [10] was -0.324.
With GCCTAGG the “uncleaved DNA left (log2)” value [1] was 0.0442, the “uncleaved DNA left (log2)” value [2] was 0.0136 and the “uncleaved DNA left (log2)” value [3] was 0.352. The “uncleaved DNA left (log2)” value [4] was 0.997, the “uncleaved DNA left (log2)” value [5] was -0.0266 and the “uncleaved DNA left (log2)” value [6] was 0.872. The “uncleaved DNA left (log2)” value [7] was 0.126, the “uncleaved DNA left (log2)” value [8] was 0.138 and the “uncleaved DNA left (log2)” value [9] was 0.0549. For the same sequence, the “uncleaved DNA left (log2)” value [10] was 0.0891.
TACGCGA was tested, and the “uncleaved DNA left (log2)” value [1] was -0.0698, the “uncleaved DNA left (log2)” value [2] was 0.0105 and the “uncleaved DNA left (log2)” value [3] was -0.857. For the same sequence, the “uncleaved DNA left (log2)” value [4] was -0.566, the “uncleaved DNA left (log2)” value [5] was 0.0378 and the “uncleaved DNA left (log2)” value [6] was -0.89. For the same sequence, the “uncleaved DNA left (log2)” value [7] was 0.0384, the “uncleaved DNA left (log2)” value [8] was -0.137 and the “uncleaved DNA left (log2)” value [9] was -0.0543. The “uncleaved DNA left (log2)” value [10] was -0.0973.
CGGGCTT was tested, and the “uncleaved DNA left (log2)” value [1] was 0.0569, the “uncleaved DNA left (log2)” value [2] was 0.0175 and the “uncleaved DNA left (log2)” value [3] was 0.755. The “uncleaved DNA left (log2)” value [4] was 1.4, the “uncleaved DNA left (log2)” value [5] was 0.103 and the “uncleaved DNA left (log2)” value [6] was 2.04. The “uncleaved DNA left (log2)” value [7] was 0.121, the “uncleaved DNA left (log2)” value [8] was 0.026 and the “uncleaved DNA left (log2)” value [9] was -0.000387. The “uncleaved DNA left (log2)” value [10] was 0.165.
In the case of ACAATAC, the “uncleaved DNA left (log2)” value [1] was -0.0904, the “uncleaved DNA left (log2)” value [2] was -0.0628 and the “uncleaved DNA left (log2)” value [3] was -0.233. For the same sequence, the “uncleaved DNA left (log2)” value [4] was -0.878, the “uncleaved DNA left (log2)” value [5] was 0.071 and the “uncleaved DNA left (log2)” value [6] was -1.04. The “uncleaved DNA left (log2)” value [7] was 0.0926, the “uncleaved DNA left (log2)” value [8] was 0.0349 and the “uncleaved DNA left (log2)” value [9] was -0.152. For the same sequence, the “uncleaved DNA left (log2)” value [10] was -0.0974.
For AACTAGA, the “uncleaved DNA left (log2)” value [1] was 0.043, the “uncleaved DNA left (log2)” value [2] was 0.00853 and the “uncleaved DNA left (log2)” value [3] was -0.254. For the same sequence, the “uncleaved DNA left (log2)” value [4] was -0.697, the “uncleaved DNA left (log2)” value [5] was -0.0946 and the “uncleaved DNA left (log2)” value [6] was -0.985. For the same sequence, the “uncleaved DNA left (log2)” value [7] was -0.702, the “uncleaved DNA left (log2)” value [8] was 0.0108 and the “uncleaved DNA left (log2)” value [9] was -0.0928. For the same sequence, the “uncleaved DNA left (log2)” value [10] was -0.0248.
With GACATTG the “uncleaved DNA left (log2)” value [1] was 0.107, the “uncleaved DNA left (log2)” value [2] was 0.0581 and the “uncleaved DNA left (log2)” value [3] was 0.0294. For the same sequence, the “uncleaved DNA left (log2)” value [4] was 0.539, the “uncleaved DNA left (log2)” value [5] was -0.00155 and the “uncleaved DNA left (log2)” value [6] was -0.207. For the same sequence, the “uncleaved DNA left (log2)” value [7] was 0.225, the “uncleaved DNA left (log2)” value [8] was 0.0529 and the “uncleaved DNA left (log2)” value [9] was 0.109. The “uncleaved DNA left (log2)” value [10] was 0.00431.
For TACGTAC, the “uncleaved DNA left (log2)” value [1] was 0.00792, the “uncleaved DNA left (log2)” value [2] was -0.0755 and the “uncleaved DNA left (log2)” value [3] was -0.245. The “uncleaved DNA left (log2)” value [4] was -0.314, the “uncleaved DNA left (log2)” value [5] was 0.0362 and the “uncleaved DNA left (log2)” value [6] was -0.958. For the same sequence, the “uncleaved DNA left (log2)” value [7] was -0.0624, the “uncleaved DNA left (log2)” value [8] was -0.115 and the “uncleaved DNA left (log2)” value [9] was 0.000945. The “uncleaved DNA left (log2)” value [10] was 0.044.
AGCTACC was tested, and the “uncleaved DNA left (log2)” value [1] was 0.0684, the “uncleaved DNA left (log2)” value [2] was -0.0456 and the “uncleaved DNA left (log2)” value [3] was 0.000963. For the same sequence, the “uncleaved DNA left (log2)” value [4] was -0.0307, the “uncleaved DNA left (log2)” value [5] was -0.0029 and the “uncleaved DNA left (log2)” value [6] was 0.435. For the same sequence, the “uncleaved DNA left (log2)” value [7] was -0.37, the “uncleaved DNA left (log2)” value [8] was 0.0422 and the “uncleaved DNA left (log2)” value [9] was -0.0202. The “uncleaved DNA left (log2)” value [10] was -0.0201.
CAAAGCC was tested, and the “uncleaved DNA left (log2)” value [1] was 0.0538, the “uncleaved DNA left (log2)” value [2] was 0.0412 and the “uncleaved DNA left (log2)” value [3] was -0.31. For the same sequence, the “uncleaved DNA left (log2)” value [4] was -0.688, the “uncleaved DNA left (log2)” value [5] was -0.012 and the “uncleaved DNA left (log2)” value [6] was -0.872. For the same sequence, the “uncleaved DNA left (log2)” value [7] was 0.0584, the “uncleaved DNA left (log2)” value [8] was -0.0476 and the “uncleaved DNA left (log2)” value [9] was -0.000114. For the same sequence, the “uncleaved DNA left (log2)” value [10] was -0.0778.
For TATAGTT, the “uncleaved DNA left (log2)” value [1] was -1.18, the “uncleaved DNA left (log2)” value [2] was -2.03 and the “uncleaved DNA left (log2)” value [3] was -2.41. The “uncleaved DNA left (log2)” value [4] was -3.08, the “uncleaved DNA left (log2)” value [5] was -0.0793 and the “uncleaved DNA left (log2)” value [6] was -0.601. For the same sequence, the “uncleaved DNA left (log2)” value [7] was -3.11, the “uncleaved DNA left (log2)” value [8] was -0.122 and the “uncleaved DNA left (log2)” value [9] was -0.214. The “uncleaved DNA left (log2)” value [10] was -0.433.
